Measured values as given in PubChem BioAssay AID624418 (National Center for Advancing Translational Sciences (NCATS), 2012).
In all, about 410,000 compounds went through this assay and about 530 (0.13%) were called active. The shares of active, inactive and inconclusive entries below differ from those in the screen. The call rests on the fitted dose curve; in most records, active means well fitted inhibition curve with a large enough effect; inconclusive means small, poorly fitted or top-dose-only effect, or another doubt; inactive means no such curve, though single readings can be large or run the other way. Potencies beside an inconclusive call are fits to weak or partial responses and may not hold up.

Test: qHTS of GLP-1 Receptor Inverse Agonists: Cytotox Screen
Settings: HEK293 cAMP-luciferase reporter cells, luminescence, 24 h; activity change, negative = inhibition: at 38.3 µM (top of the series) unless noted
In short: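 To flag toxic compounds, the library was rerun on cells for 24 hr at 37 deg C and 5% CO2. Viability-linked luminescence was captured 12 min after adding luciferase detection reagent.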
On the % scale 0 is the no-effect control and ±100 the full control effect; potency means the concentration at half of the fitted maximal effect.

| Compound | activity change, negative = inhibition | Potency |
| --- | --- | --- |
| C#CCNC(=O)C[C@@H]1C[C@@]2(C(=O)OC)CCCCC=C2N(Cc2ccc(Cl)cc2Cl)C1=O | inactive: 3.14% | – |
| COc1ccc(/C(C)=N/Nc2nc3ccccc3nc2C)cc1OC | – | inconclusive: 0.447 µM [inhibitor, full curve, poor fit] |
| Oc1ccc(/C=N/N(Cc2ccccc2)c2ccccc2)cc1 | – | inconclusive: 28.2 µM [inhibitor, single point] |
| CCOC(=O)C(=Cc1ccccc1OC)C(=O)OCC | – | inconclusive: 12.6 µM [inhibitor, partial curve, poor fit] |
| CCN1C(=O)/C(=C/N2CCc3ccccc3C2)SC1=S | – | inconclusive: 28.2 µM [inhibitor, single point] |
| CCc1ccc(NC(=O)CSc2nc(O)cc(=O)n2C2CCCC2)cc1 | inactive: -5.68% | – |
| Cc1cc(=O)n2nc(N3CCCC(C(=O)NCCc4ccccc4)C3)sc2n1 (centres undefined) | inactive: 5.23% | – |
| CN(C)CCNc1oc(COc2cccc(Cl)c2)nc1C#N | inactive: -4.33% | – |
| COc1cc2[nH]c3c(N4CCN(c5ccccn5)CC4)ncnc3c2cc1OC | – | inconclusive: 25.1 µM [inhibitor, single point] |
| CCn1c(=O)c2cc(C(=O)N(C)c3cc(C)ccc3OC)sc2c2ccccc21 | – | inconclusive: 10 µM [inhibitor, single point] |
| CSc1nc2ccccc2n1Cc1c(Cl)cccc1Cl | – | inconclusive: 15.8 µM [inhibitor, partial curve, poor fit] |
| Cc1cc(OCCN2CCC(Cc3ccccc3)CC2)ccc1[N+](=O)[O-] | – | inconclusive: 12.6 µM [inhibitor, single point] |
| Cc1ccc(NC(=S)N2CCCC(c3nc4ccc(C)cc4[nH]3)C2)c(C)c1 (centres undefined) | – | inconclusive: 28.2 µM [inhibitor, single point] |
| O=C(/C(=C\c1ccccc1)c1nc2ccccc2[nH]1)c1ccc(Cl)cc1 | – | inconclusive: 31.6 µM [inhibitor, partial curve, poor fit] |
| CN(C)CC(C)(C)CNC(=O)C1CCN(Cc2ccccc2O)CC1 | – | inconclusive: 10 µM [inhibitor, partial curve, poor fit] |
| CCOC(=O)c1cc2c(ccn2C)n1Cc1ccc(Cl)cc1 | inactive: -0.249% | – |
| COc1ccc(C(CNC(=O)C(C)(C)Oc2ccc(Cl)cc2)N2CCCC2)cc1 (centres undefined) | inactive: -15.9% | – |
| CCC(C)Oc1ccc(/C=C/c2[nH]c(=O)[nH]c(=O)c2[N+](=O)[O-])cc1OC (centres undefined) | – | inconclusive: 11.2 µM [inhibitor, partial curve, poor fit] |
| Cc1ccc(CONC(=O)c2cccc(C)c2)cc1 | inactive: -14.8% | – |
| CCN(CC)CCOC(=O)c1ccc(Nc2c3c(nc4ccccc24)CCC3)cc1 | – | inconclusive: 10 µM [inhibitor, partial curve, poor fit] |
| CCC(=O)Nc1ccc(-c2cc(-c3ccccc3)nc(-c3ccc(NC(=O)CC)cc3)n2)cc1 | – | inconclusive: 10 µM [inhibitor, partial curve] |
| COc1ccc2sc(N(CCCN(C)C)C(=O)c3ccc(S(=O)(=O)N(C)Cc4ccccc4)cc3)nc2c1 | – | inconclusive: 28.2 µM [inhibitor, single point] |
| O=C(Nc1ccc2c(c1)OCO2)c1cc(-c2cccnc2)nc2ccccc12 | inactive: -8.55% | – |

| Compound | activity change, negative = inhibition | Potency |
| --- | --- | --- |
| Cc1ccc(OCCCNCCO)c(Br)c1 | – | inconclusive: 8.91 µM [inhibitor, partial curve, poor fit] |
| Cc1ccc(NC(=S)N(CCN2CCCCC2)Cc2ccco2)cc1C | – | inconclusive: 11.2 µM [inhibitor, single point] |
| COC(=O)c1ccc(COc2ccc3c(C)c(C)c(=O)oc3c2C)o1 | inactive: 0.344% | – |
| O=C(CCn1c(=O)c2ccccc2n(Cc2cccc(F)c2)c1=O)NCc1ccc2c(c1)OCO2 | inactive: 5.51% | – |
| CCOc1ccc(C(=O)/C=C/c2cn(CC(O)CN3CCc4ccccc43)c3ccccc23)cc1 (centres undefined) | inactive: 31.1% | – |
| CCOC(=O)c1sc2nc(N3CCOCC3)c3c(c2c1N)CC(C)(C)N(C)C3 | inactive: 6.06% | – |
| O=C(O)CCn1cc(/C=C2/NC(=S)N(c3ccccc3)C2=O)c(-c2ccccc2)n1 | – | inconclusive: 7.94 µM [inhibitor, partial curve] |
| CN(C)c1ccc(S(=O)(=O)NCC(=O)NCCC2=CCCCC2)cc1[N+](=O)[O-] | – | inconclusive: 28.2 µM [inhibitor, single point] |
| O=C(CCS(=O)(=O)c1nc(-c2ccc3c(c2)OCO3)cc(C(F)(F)F)n1)Nc1ccc(Br)cc1 | – | inconclusive: 20 µM [inhibitor, single point] |
| COc1cccc(NC(=S)NC(=O)c2cncc(Br)c2)c1 | – | inconclusive: 12.6 µM [inhibitor, single point] |
| CCN1/C(=C/C(=S)Nc2ccccc2)Sc2ccccc21 | – | inconclusive: 0.447 µM [inhibitor, full curve, poor fit] |
| Cc1ccc(S(=O)(=O)NC(CC(C)C)C(=O)N2CCN(C/C=C/c3ccccc3)CC2)cc1 (centres undefined) | – | inconclusive: 5.62 µM [inhibitor, full curve, poor fit] |
| CCCCc1ccc(N2C(=NC(=O)C3CCCO3)SC3CS(=O)(=O)CC32)cc1 (centres undefined) | inactive: 1.46% | – |
| CCCN(CCC)c1nc(-c2ccccn2)nc2ccccc12 | – | inconclusive: 1.41 µM [inhibitor, full curve] |
| CC(C)Oc1ccc(CNC(=O)c2ccc3c(c2)nc2n3CCOC2)cc1 | inactive: -4% | – |
| CCN(c1ccccc1C)S(=O)(=O)c1nnc(NC(=O)c2ccccc2C)s1 | inactive: -19% | – |
| COc1ccc(OC)c(C(=O)CSc2nccc(-c3ccc(Br)cc3)n2)c1 | – | inconclusive: 10 µM [inhibitor, single point] |
| Cc1ccccc1C(=O)Nc1sc2c(c1C(=O)N1CCC(C)CC1)CCC(C)C2 (centres undefined) | inactive: 0.577% | – |
| O=S(=O)(Nc1nc2ccccc2nc1-[n+]1ccccc1)c1ccc(Cl)cc1 | – | inconclusive: 11.2 µM [inhibitor, single point] |
| CCc1cccc(NC(=O)Cn2c(=O)n3nc(-c4cccc(F)c4)nc3c3ccccc32)c1 | inactive: 5.61% | – |
| COc1ccc(CNC(=O)N2CCc3ccccc3C2)cc1 | – | inconclusive: 10 µM [inhibitor, single point] |
| COc1ccccc1C(=O)NCC(=O)N=Nc1c(O)n(C(C)C)c2ccccc12 | inactive: -6.13% | – |
| COc1ccccc1-n1c(C)nc2cc(C(=O)O)ccc21 | – | inconclusive: 11.2 µM [inhibitor, single point] |

| Compound | activity change, negative = inhibition | Potency |
| --- | --- | --- |
| O=C(CN(CCc1ccccc1)C(=O)CN1C(=O)COc2ccccc21)NCc1ccco1 | – | inconclusive: 10 µM [inhibitor, single point] |
| COc1cc(OC)cc(C(=O)N/N=C(\C)CC(=O)Nc2ccccn2)c1 | – | inconclusive: 2.24 µM [inhibitor, full curve] |
| COC(=O)c1c(-c2ccc(OC)cc2)sc2cc3c(cc12)OCO3 | inactive: 12.7% | – |
| CNC[C@H](CC1CCCCC1)NC[C@H](CO)NCCc1cccc(C(F)(F)F)c1 | – | inconclusive: 28.2 µM [inhibitor, single point] |
| CCOC(=O)N1CCC(NC(=O)c2cnn(-c3ccc(OC)cc3)c2C2CCN(C(=O)OC(C)(C)C)CC2)CC1 | inactive: -9.44% | – |
| NC(=O)c1cc(S(=O)(=O)NCc2cccs2)cs1 | inactive: 4.23% | – |
| Cc1ccccc1OCCn1cc(C(=O)c2ccco2)c2ccccc21 | inactive: -9.62% | – |
| C#CCOCCOCCOCCNc1nc(N2CCN(C(=O)CCCCCCCCCCNC(=O)[C@H]([C@@H](C)CC)n3cc(CCCCCN)nn3)CC2)nc(N2CCN(C(=O)CCCCCCCCCCNC(=O)[C@@H]([C@H](C)O)n3cc(C)nn3)CC2)n1 | – | inconclusive: 20 µM [inhibitor, single point] |
| COc1ccc(-c2cc3nc(-c4ccccc4)cc(N4CCC(O)CC4)n3n2)cc1 | – | inconclusive: 11.2 µM [inhibitor, single point] |
| COc1ccccc1NC(=O)Cc1csc(NC(=S)Nc2ccccc2)n1 | – | inconclusive: 10 µM [inhibitor, single point] |
| CCOc1ccc(NC(=O)c2cc([N+](=O)[O-])ccc2N2CCOCC2)cc1 | – | inconclusive: 7.94 µM [inhibitor, partial curve, poor fit] |
| O=c1c2cc(Br)ccc2[nH]c(=S)n1Cc1ccccc1 | – | inconclusive: 28.2 µM [inhibitor, single point] |
| O=C(O)Cc1ccc2oc(-c3cccnc3)nc2c1 | – | inconclusive: 28.2 µM [inhibitor, single point] |
| Cc1cc(C)c(NC(=O)Cn2c(=O)oc3cc(S(=O)(=O)N4CCCCCC4)ccc32)c(C)c1 | inactive: -4.42% | – |
| O=C(CC(=O)c1ccccc1)c1ccccc1 | inactive: 4.3% | – |
| O=c1[nH]c(C2CCN(S(=O)(=O)c3ccccc3)CC2)nc2c1nnn2Cc1cccc(Cl)c1 | – | inconclusive: 28.2 µM [inhibitor, single point] |
| CC1(C)Oc2ccc3ccc(=O)oc3c2-c2cn[nH]c21 | inactive: -19.5% | – |
| Cc1cc(OC(=O)c2ccc(Cl)cc2)cc(=O)n1C | – | inconclusive: 28.2 µM [inhibitor, single point] |
| Cc1ccc(-n2cc(CNCCn3nc(C)cc3C)c(-c3ccc(F)cc3)n2)cc1 | – | inconclusive: 14.1 µM [inhibitor, single point] |
| CCCn1c2ccccc2c2cnn(CC(=O)NCCCN3CCCCC3CC)c(=O)c21 (centres undefined) | – | inconclusive: 31.6 µM [inhibitor, single point] |
| O=C(C(=O)N1CCC(Cc2ccccc2)CC1)c1cccs1 | inactive: 17.7% | – |
| CCCCNc1c(-c2ccc(SC3CCCCC3)cc2)nc2cnccn12 | inactive: 125% | – |
| CC(C)(C)c1ccccc1NC(=S)NCc1ccccc1 | – | inconclusive: 28.2 µM [inhibitor, single point] |
